Literature values in patent publication US20220233468A1 (priority 2021, published 2022).

Columns and labels:
SARS-CoV-2 = conditions: in vitro, from literature (Hoffmann et al.; Ou et al.; Yamamoto et al.; Bestle et al.), cited from earlier work
SARS-CoV = conditions: in vitro, from literature (Hoffmann et al.; Ou et al.); cited from earlier work

For `N=C(N)c1ccc2cc(OC(=O)c3ccc(N=C(N)N)cc3)ccc2c1` [Nafamostat], the “block of SARS-CoV-2 cell entry” value (SARS-CoV-2) is given as “block the SARS-CoV-2 entry and reduce the infection rate”.
In the case of `CN(C)C(=O)COC(=O)Cc1ccc(OC(=O)c2ccc(NC(=N)N)cc2)cc1` [camostat mesylate], the “block of SARS-CoV cell entry” value (SARS-CoV) is given as “partially blocks”, the “block of SARS-CoV-2 cell entry” value (SARS-CoV-2) is given as “partially blocks” and the “block of SARS-CoV-2 cell entry” value (SARS-CoV-2; listed as Camostat) is given as “block the SARS-CoV-2 entry and reduce the infection rate”.
In the case of Aprotinin, the “block of SARS-CoV-2 cell entry” value (SARS-CoV-2) is given as “block the SARS-CoV-2 entry and reduce the infection rate”.

Where a name gives a salt, the structure may show the parent alone. Read-outs that look alike come from different tables or passages of the source.
